These results are taken from PubChem BioAssay AID485344 (National Center for Advancing Translational Sciences (NCATS), 2010).

By inhibition is commonly meant the change of the read-out against control, counted positive when it falls.

The structures appear in SMILES notation. Several values for one entry are separate records, joined by “and”; a condition that tells them apart may be missing. Equal values may be shown once. The campaign covered roughly 340,000 compounds. About 6,900 (2%) were called active. Rule as the data show it: active = inhibition above about 30%; inactive = below that, where a call was filed. The list shows a part of the results, in another mix than the full data. Entries without a call were filed so in the source.

Chain of UniProt P14416 (P14416 whole entry, looked up): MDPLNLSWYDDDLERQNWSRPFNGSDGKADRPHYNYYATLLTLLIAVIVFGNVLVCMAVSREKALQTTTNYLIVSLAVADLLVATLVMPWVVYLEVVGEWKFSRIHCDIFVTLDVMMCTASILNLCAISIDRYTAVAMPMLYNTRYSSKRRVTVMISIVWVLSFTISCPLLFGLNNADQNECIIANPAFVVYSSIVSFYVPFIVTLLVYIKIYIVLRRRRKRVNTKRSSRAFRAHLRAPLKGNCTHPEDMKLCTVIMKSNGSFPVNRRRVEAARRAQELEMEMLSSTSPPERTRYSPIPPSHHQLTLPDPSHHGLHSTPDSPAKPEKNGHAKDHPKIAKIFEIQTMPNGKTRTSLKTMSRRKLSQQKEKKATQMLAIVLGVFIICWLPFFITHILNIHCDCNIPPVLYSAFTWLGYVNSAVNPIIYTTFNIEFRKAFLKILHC

The target in this assay is D(2) dopamine receptor (Homo sapiens) (UniProt P14416). In words: HTS Assay for Allosteric Antagonists of the Human D2 Dopamine Receptor: Primary Screen for Antagonists. Also: 0% is about no effect. The conditions noted are these: HEK293 TREx D2 cells, calcium flux, dopamine EC80; at 10 µM; stronger effect = higher value. A digest of the protocol:
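Overnight-induced (tetracycline, 30 C) HEK293 T-REx cells carrying force-coupled D2 receive a no-wash calcium dye, then compound, then EC80 dopamine at 180 s; signals are read kinetically throughout.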
In the case of `Cc1cccc(C)c1OCC(=O)NCC1(N(C)C)CCCCC1`, the inhibition is 1.19%. Consider `Cc1ccc(N2C(=O)CSC23C(=O)N(CC(=O)NCc2ccccc2)c2ccccc23)cc1C` (configuration not stated), for which the inhibition was -11.4%. For the compound `COCCCNC(=O)c1ccc(NC(=O)c2nsc3ccccc23)cc1`, the inhibition came out at 6.09%. Regarding `COc1ccccc1CNC(=O)C1CCC(CNS(=O)(=O)c2ccc3c(c2)CCCC(=O)N3)CC1` (configuration not stated), the inhibition is -3.51%.

Regarding `Cc1ccc2c(Sc3ccc(Cl)cc3)c(C(=O)N3CCC(C)CC3)[nH]c2c1`, the inhibition worked out at 9.04%. For `CCN(CC)CCNC(=O)c1ccc(Cn2c(SCc3ccccc3)nc3cccnc32)cc1` the value was -1.57%.

Take `COc1ccc(CNS(=O)(=O)c2cnc(N)nc2)c(OC)c1`: the inhibition is 7.62%. The result for `C=CCc1cccc(/C=N/NC(=O)C[n+]2ccccc2)c1O` reads active: 52.7%; that for `COc1cc(-c2cc(OC)c3c(C)oc(C)c3c(=O)c2)ccc1OC(=O)c1ccccc1Cl`, -0.294%. The result for `COc1ccc(OC)c2sc(N3CCN(C(=O)C(C)(C)C)CC3)nc12` reads 12.4%; that for `COc1cc(Cl)c(NC(=O)CCS(=O)(=O)c2cc3c(cc2Cl)NC(=O)CO3)c(OC)c1`, 0.136%. For `Cc1cc(C)c2c(=O)cc(CSCC(=O)Nc3ccccc3Cl)[nH]c2c1` the value was -15%; for `Cc1ccc2nc(N3CCN(c4cccc(Cl)c4)CC3)c(-n3nc(C)cc3C)nc2c1`, 23.2%; for `Cc1cccc(Oc2nc3c(C)cccn3c(=O)c2/C=C(\C#N)c2nc3ccccc3[nH]2)c1`, -8.36%. Consider `COc1ccc(CNC(=O)CCn2cccn2)cc1`, for which the inhibition is -11.6%.

Take `O=C(COc1ccc(Br)cc1)Nc1ccc2c(c1)C(=O)NC2=O`: the inhibition was active: 33.4%. The result for `Cc1ccccc1C(=O)n1nc(-c2ccco2)nc1NCc1ccc(Cl)cc1` reads -8.62%; that for `Cc1ccc(C(C)C)c(OCC(=O)NCC2(N(C)C)CCCCC2)c1`, -5.08%; that for `COc1ccc(CCn2cc3c(c2-c2ccc(Br)cc2)c(=O)n(C)c(=O)n3C)cc1OC`, 10.5%. For `O=C(NCCc1ccccc1Cl)c1ccc(Cn2c(=O)c3cccn3c3cccnc32)cc1` the value was 16.3%; for `COc1ccc(-c2nc(C)c(CCNC(=O)C(=O)Nc3ccccc3OC)s2)cc1`, -21.4%. Consider `CCOC(=O)C1CCC(CN(Cc2cccc(Br)c2)S(=O)(=O)c2ccc(C)cc2)CC1` (configuration not stated), for which the inhibition was 0.712%. For `CCc1ccc(C(=O)c2cn(CC(=O)Nc3ccc4c(c3)OCO4)c3cc(OC)c(OC)cc3c2=O)cc1` the value was 13.7%; for `CCc1ccccc1NC(=O)c1c(NC(=O)c2ccccc2)sc2c1CCCC2`, 2.49%; for `Cc1ccc(-c2nnc(SCc3ccccc3C)o2)cc1`, 11%. The result for `O=C(COc1ccc(Cl)cc1)Nc1ccc(-c2nc3ccccc3s2)c(O)c1` reads -17.4%; that for `Cc1ccc(C)c(N2CCN(C(=O)C3CCCN(S(=O)(=O)c4ccc5c(c4)oc(=O)n5C)C3)CC2)c1` (configuration not stated), -11.3%. The result for `CCCCCn1c(C(C)NC(=O)c2ccccc2)nc2ccccc21` (configuration not stated) reads 14.6%; that for `COc1ccc(Nc2nc(-c3ccc(C)cc3)nc3ccccc23)c(OC)c1`, -8.66%. In the case of `CCOc1ccc(-c2nonc2NC(=O)COc2c(C)cc(C)cc2C)cc1OCC`, the inhibition is -0.574%. As for `Fc1ccc(-c2noc3ncnc(NCCc4ccccc4)c23)cc1`, the inhibition was -13.9%.

`COc1ccc2c(c1)c1c(c(=O)n(Cc3ccccc3)c(=O)n1CC(=O)NCc1ccccc1Cl)n2C`: the inhibition was determined as 11.9%. Regarding `CCOc1cc(CNC(=O)C2COc3ccccc3C2)cc(OCC)c1OCC` (configuration not stated), the inhibition is -13.4%. For `CCc1nn(CC(=O)NCCc2ccc(OC)cc2OC)c(=O)c2cc3c(OC)cccc3n12` the value was -8.2%; for `CCOC(=O)N1CCN(C(=O)Nc2ccccc2)CC1`, active: 30.7%. For `COc1ccc(NC(=O)Cn2c(SCc3cc(C)ccc3C)nc3ccncc32)c(OC)c1OC` the value was -26%. The result for `Cc1c(CCNC(=O)c2ccc(Br)o2)sc2nc(-c3ccc(F)cc3)nn12` reads -5.58%; that for `CCOc1ccccc1NC(=O)Cn1cc(C(=O)c2cccc(OC)c2)c(=O)c2ccc(C)nc21`, -2.02%. Turning to `O=C(Cn1c(=O)c2cccn2c2ccccc21)NCCc1ccccc1`, the inhibition was -12.8%. For `COc1cc(NC(=O)CN(c2ccc(C)cc2)S(=O)(=O)c2cccc3nonc23)cc(OC)c1` the value was -26%. The result for `CCc1cccc(NC(=O)CSC2=Nc3ccccc3N=C(c3ccc(F)cc3)C2)c1` reads 6.49%; that for `CCOc1ccccc1C(=O)Nc1ccc(S(=O)(=O)Nc2nc(C)cc(C)n2)cc1`, -24.6%. For `Cc1ccc2nc(NC(=O)COc3ccc(F)cc3)sc2c1` the value was 18.7%; for `Cc1ccc(NC(=O)Cn2cnc3sc(C(=O)O)c(C)c3c2=O)cc1Cl`, 3.69%. Take `CCN1CCN(c2nc3c(S(=O)(=O)c4ccc(Br)cc4)nnn3c3ccsc23)CC1`: the inhibition came out at 7.69%. For `C=CCN(C)CC/C=C1\c2ccccc2CSc2ccccc21` the value was active: 68.5%; for `Cc1cc(C)c(NC(=O)Cn2c(=O)n(-c3ccc(CC(=O)NCC4CCCO4)cc3)c(=O)c3ccccc32)c(C)c1` (configuration not stated), -4.33%. With `Cc1ccc(-c2nc3n(n2)C(=O)CC(c2ccc(Cl)cc2)S3)cc1` (configuration not stated), the inhibition is -25.5%.

Consider `Cc1ccc(OCC(=O)OCc2cc(=O)n3nc(-c4cccs4)sc3n2)cc1C`, for which the inhibition is -3.11%. Consider `Cc1ccc(C(=O)Nc2sc3c(c2C(=O)NCc2ccco2)CCC(C(C)(C)C)C3)cc1` (configuration not stated), for which the inhibition worked out at 7.44%. `O=C(NCc1ccc(F)cc1)c1cc2n(n1)CCCN(Cc1ccc(F)cc1)C2=O`: the inhibition is 2.68%. In the case of `Cc1ccc(C)c(N2CCN(CCCNC(=O)c3cnn(-c4ccccc4Cl)c3C3CCN(C(=O)OC(C)(C)C)CC3)CC2)c1`, the inhibition amounted to 0.837%. As to `CCOc1ccc(Sc2cc(C(=O)NC(C)c3ccccc3)c3ccccc3n2)cc1` (configuration not stated), the inhibition was 23.3%. The result for `Cc1ccc(OCC(=O)Nc2cc3nn(-c4ccccc4)nc3cc2C)cc1` reads 8.05%; that for `Cc1ccsc1CN(C(=O)COc1ccc(Br)cc1)C1CCS(=O)(=O)C1` (configuration not stated), -7.2%; that for `Cc1ccc(C(=O)Nc2ccc(NC(=O)c3cccs3)cc2)cc1C`, -28.4%. The result for `Cc1cc(Cl)ccc1NC(=O)C(=O)NCc1ccco1` reads 1.99%.

Turning to `Cc1cccn2c(=O)c(/C=C(\C#N)c3nc4ccccc4[nH]3)c(Oc3ccc(C(C)(C)C)cc3)nc12`, the inhibition came out at 1.94%. As to `CCOc1ccc(-c2ccc(NS(=O)(=O)c3ccc(C)cc3)cc2)nn1`, the inhibition came to 0.566%. The result for `COc1ccc(CCCc2nnc(SCC(=O)Nc3ccc(C)cc3)o2)cc1` reads 9.82%; that for `O=C1NC(=Nc2ccc(Cl)cc2)/C(=C/c2ccco2)S1`, active: 59.2%; that for `O=C(CCc1nc(-c2cccs2)no1)Nc1cccc([N+](=O)[O-])c1`, 10.7%.

In the case of `Cc1ccc(C)c(N2CCN(C(c3ccccc3)c3nnc(-c4ccccc4F)o3)CC2)c1` (configuration not stated), the inhibition is -13.7%. Turning to `COc1cccc(NC2=CC(c3ccc(C(C)C)cc3)N(c3cccc(OC)c3)C2=O)c1` (configuration not stated), the inhibition was -2.43%. For `Cc1c(Cl)cccc1-n1nnc(-c2nc(-c3ccc4c(c3)OCO4)no2)c1C` the value was -1.38%; for `COc1ccc(C)cc1NS(=O)(=O)c1cc(Br)cc2c1N(C(C)=O)C(C)C2` (configuration not stated), -4.94%; for `Cc1c(C(=O)N(Cc2cccc(Cl)c2)Cc2ccco2)oc2ccccc12`, 4.24%. Regarding `Cc1cc(N2CCOCC2)n2nc(C)c(-c3ccc(Cl)cc3)c2n1`, the inhibition was active: 33%. The result for `CC(=O)Nc1ccc(NC(=O)CN2C(=O)CCc3cc(S(=O)(=O)N4CCCCC4)ccc32)cc1` reads -1.94%.

Consider `O=C(Cn1cc(SCc2ccc(Cl)cc2)c2ccccc21)N1CCCC1`, for which the inhibition came out at 1.74%. As to `O=C(Nc1ccc(F)cc1)Nc1nnc(SCC(=O)N2CCCCC2)s1`, the inhibition is -18.6%. For `COc1ccc(Cl)cc1S(=O)(=O)N1CCC(c2ccncc2)CC1` the value was -8.51%. As for `COc1cccc(/C=C/c2nc3ccccc3c(=O)n2-c2ccc(C)c(C)c2)c1OC`, the inhibition is -3.46%.

As to `Cc1nc(N)c(S(=O)(=O)c2ccccc2)c(Nc2ccc(Br)cc2)n1`, the inhibition is 5.2%. In the case of `CCOC(=O)Cn1c(=O)c2c(nc(N3CCOCC3)n2C)n(C)c1=O`, the inhibition was active: 38.7%. For `O=C(c1cccn1-c1nnc(N2CCCC2)s1)N1CCN(c2ccc(F)cc2)CC1` the value was 2.69%; for `Cc1cccc(OCC(=O)NCc2ccc3c(c2)CCN3C(=O)c2ccc(Cl)cc2)c1`, -27%. The result for `CCOc1ccc(NC(=O)c2c(NC(=O)c3ccncc3)sc3c2CCC(C(C)(C)C)C3)cc1` (configuration not stated) reads 8.36%.

Consider `O=C(NC1CCCC1)c1cc(-c2ccccc2Cl)on1`, for which the inhibition is active: 49.8%. The result for `CSCCC(NC(=O)c1ccccc1)C(=O)NCCc1ccc2c(c1)OCCO2` (configuration not stated) reads active: 65.6%; that for `COc1cccc(CNC(=O)CSc2nnc(C)c3c(C)n(-c4ccccc4)nc23)c1`, 8.05%. For `Cc1ccccc1Nc1c(-c2ccc(O)cc2)nc2c(C)cccn12` the value was 22.8%. The result for `COc1ccc(NC(=O)CCS(=O)(=O)c2cc3c4c(c2)CCN4C(=O)CC3)cc1OC` reads -4.2%; that for `CCC(C(=O)Nc1ccc(F)cc1F)n1nc(-c2ccccc2)c2c(c1=O)CCCC2` (configuration not stated), 4.89%.

`CC1CCN(S(=O)(=O)c2ccc3c(c2)oc(=O)n3CC(=O)N2CCCCC2)CC1`: the inhibition is -0.537%. The result for `Cc1ccccc1CNCCSc1nnnn1C` reads -12.2%; that for `Cc1cccc(C)c1NC(=O)c1nc(SC(C)C)ncc1Cl`, 13.2%; that for `O=C(Nc1ccc(O)c(-c2nc3ccccc3o2)c1)c1ccc(-c2cccc(Cl)c2)o1`, 7.81%. The result for `COCCCNC(=O)C1CCN(C(=O)c2ccc(-n3ccc4ccccc43)s2)CC1` reads -3.85%; that for `Cc1cc(C)cc(N(CC(=O)Nc2ccc(C)cc2Cl)S(=O)(=O)c2c(C)[nH]c(=O)[nH]c2=O)c1`, -14.2%; that for `CCOc1ccccc1NC(=O)Cn1c(=O)n(CCCCC(=O)NCCCOC)c(=O)c2ccccc21`, 5.81%. The result for `CC1CCCCC1NC(=O)CCNS(=O)(=O)c1cc(Br)cnc1N` (configuration not stated) reads active: 32.9%; that for `Cc1ccc2[nH]c3c(=O)n(CC(=O)NCCCN4CCN(c5ccc(F)cc5)CC4)ncc3c2c1`, -16.6% and active: 62.6%. Consider `CCc1ccccc1N(C)C(=O)c1cc2c(Cl)nc3ccc(C)cc3c2s1`, for which the inhibition is -6.14%.

Regarding `CCc1ccc(NC(=O)Cn2nnc(C(=O)NCCc3ccccc3)c2N)cc1`, the inhibition was determined as 7.56%. The result for `O=C(NCc1cccc(F)c1)C1CCN(c2nn3cc(-c4ccc(F)cc4)nc3s2)CC1` reads 3.87%; that for `Cc1onc(-c2ccccc2)c1C(=O)NNC(=S)NC(=O)c1ccc(Cl)cc1Cl`, active: 30.3%.
